Results published in PubChem BioAssay (Tox21).
Values joined by “and” are separate entries in the source; they are usually repeats but may differ in a detail not shown here. Equal values may be shown once. Inconclusive results, whose numbers are uncertain, are shown with a selection of clear calls. For some assays here: Potencies of inconclusive entries are doubtful fits and often do not repeat. Some compounds were tested as several samples or in several runs, with calls that do not always agree. Active and inactive are the calls of the source. Calls come from the whole dose curve; as a rule, active = well fitted curve in the direction sought with a large enough effect in the repeat runs; inconclusive = weak or mixed curves; inactive = no such curve, though single readings can be large; an effect the other way counts as inactive or inconclusive.

Assays:
[1] = Human pregnane X receptor (PXR) small molecule agonists, qHTS cell viability counter screen (AID 1346977); note: nearly all actives have a fitted effect of over 50% in size
Method in brief: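 PXR-Luc HepG2 cells in medium with 5% charcoal-stripped FBS were pre-incubated 5hr, then exposed to compounds for 24hr at 37C. Viability was read in the same wells by CellTiter-Fluor fluorescence, reagent added after 23hr with a 1hr incubation.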

[2] = Caspase-3/7 induction in HepG2 cells by small molecules, qHTS assay (AID 1346978); note: nearly all actives have a fitted effect of over 15% in size
Method in brief: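 Wild-type HepG2 cells (2,000/well) were settled 5 h at 37 C, 5% CO2, then exposed to compounds in DMSO for 17 h. Caspase-3/7 activity was read by luminescence 30 min after adding Caspase-Glo 3/7 reagent at room temperature.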

[3] = Caspase-3/7 induction in CHO-K1 cells by small molecules, qHTS assay (AID 1346980); note: nearly all actives have a fitted effect of over 15% in size
Method in brief: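 Wild-type cells were seeded at 1,500 per well and settled 5 hr at 37 C, 5% CO2, then exposed to DMSO-dissolved compounds for 17 hr. Caspase-Glo 3/7 reagent was added, and luminescence was read after 30min at room temperature.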

[4] = Caspase-3/7 induction in HepG2 cells by small molecules, qHTS cell viability counter screen (AID 1346981); note: nearly all actives have a fitted effect of over 30% in size
Method in brief: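 Wild-type HepG2 cells (2,000/well) were allowed to settle for 5 hr at 37 C, 5% CO2, then dosed with compounds in DMSO by pin transfer. After 16 hr at 37 C, CellTiter-Fluor was added and fluorescence read 1 hr later.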

[5] = biological target: Nuclear receptor subfamily 1 group I member 2 (Homo sapiens) (UniProt O75469); assay: Human pregnane X receptor (PXR) small molecule agonists, qHTS assay (AID 1346982); note: nearly all actives have a fitted effect of over 35% in size
Method in brief: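 PXR-Luc HepG2 cells (CYP3A4 promoter-driven luciferase) were seeded in medium with 5% charcoal-stripped FBS, left 5 hr at 37 C, then exposed to compounds in DMSO for 24 hr. Luminescence was read after ONE-Glo addition.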

[6] = biological target: Nuclear receptor subfamily 1 group I member 2 (Homo sapiens) (UniProt O75469); assay: CYP3A4 induction through human pregnane X receptor (PXR) by small molecules, qHTS assay (AID 1346984); note: nearly all actives have a fitted effect of over 40% in size
Method in brief: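 DPX-2 cells (HepG2 co-transfected with PXR and CYP3A4 promoter-luciferase) treated with compounds 24 h at 37C; luciferin-IPA CYP3A4 substrate 3uM final added for 3 h, then One-Glo; luminescence read. qHTS format.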

[7] = biological target: Nuclear receptor subfamily 1 group I member 2 (Homo sapiens) (UniProt O75469); assay: Human pregnane X receptor (PXR) activation by small molecules, qHTS assay (AID 1346985); note: nearly all actives have a fitted effect of over 40% in size
Method in brief: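 DPX-2 cells (HepG2 co-transfected with a PXR response element and a CYP3A4-promoter luciferase construct) were seeded at 2,000 per well, rested 5 hr at 37C, then exposed to DMSO-dissolved compounds for 24 hr. Activation was read as luciferase luminescence.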

[8] = biological target: Cytochrome P450 2C9 (Homo sapiens) (UniProt P11712); assay: Cytochrome P450 Family 2 Subfamily C Member 9 (CYP2C9) small molecule antagonists: luciferase reporter qHTS assay (AID 1671198); note: nearly all actives have a fitted effect of over 50% in size
UniProt P11712, sequence (P11712 whole entry, looked up): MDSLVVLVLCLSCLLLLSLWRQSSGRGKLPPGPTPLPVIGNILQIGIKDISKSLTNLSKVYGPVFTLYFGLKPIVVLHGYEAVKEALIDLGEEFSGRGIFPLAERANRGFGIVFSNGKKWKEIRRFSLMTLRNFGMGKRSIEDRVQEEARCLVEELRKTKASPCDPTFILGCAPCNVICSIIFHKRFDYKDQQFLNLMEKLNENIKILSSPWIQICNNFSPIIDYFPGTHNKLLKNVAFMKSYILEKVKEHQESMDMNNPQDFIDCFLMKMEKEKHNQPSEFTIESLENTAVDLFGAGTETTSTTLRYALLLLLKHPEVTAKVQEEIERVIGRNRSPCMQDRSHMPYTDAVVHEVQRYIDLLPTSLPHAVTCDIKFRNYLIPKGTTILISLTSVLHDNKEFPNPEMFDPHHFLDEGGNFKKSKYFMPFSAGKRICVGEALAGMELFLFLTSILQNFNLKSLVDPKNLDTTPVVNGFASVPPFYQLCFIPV
Method in brief: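 CYP2C9 activity was measured with a P450-Glo proluciferin substrate. Enzyme–substrate mix was held with compound for 10 min at room temperature, then NADPH regeneration solution was added for 1 h at 37C. Luciferin product was read as luminescence.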

[9] = biological target: Voltage-gated inwardly rectifying potassium channel KCNH2 (Homo sapiens) (UniProt Q12809); assay: Human Ether-a-go-go-Related Gene (hERG) channel small molecule antagonists: fluorescence cell-based qHTS assay (AID 1671200); note: nearly all actives have a fitted effect of over 50% in size
UniProt Q12809, sequence (Q12809 whole entry, looked up): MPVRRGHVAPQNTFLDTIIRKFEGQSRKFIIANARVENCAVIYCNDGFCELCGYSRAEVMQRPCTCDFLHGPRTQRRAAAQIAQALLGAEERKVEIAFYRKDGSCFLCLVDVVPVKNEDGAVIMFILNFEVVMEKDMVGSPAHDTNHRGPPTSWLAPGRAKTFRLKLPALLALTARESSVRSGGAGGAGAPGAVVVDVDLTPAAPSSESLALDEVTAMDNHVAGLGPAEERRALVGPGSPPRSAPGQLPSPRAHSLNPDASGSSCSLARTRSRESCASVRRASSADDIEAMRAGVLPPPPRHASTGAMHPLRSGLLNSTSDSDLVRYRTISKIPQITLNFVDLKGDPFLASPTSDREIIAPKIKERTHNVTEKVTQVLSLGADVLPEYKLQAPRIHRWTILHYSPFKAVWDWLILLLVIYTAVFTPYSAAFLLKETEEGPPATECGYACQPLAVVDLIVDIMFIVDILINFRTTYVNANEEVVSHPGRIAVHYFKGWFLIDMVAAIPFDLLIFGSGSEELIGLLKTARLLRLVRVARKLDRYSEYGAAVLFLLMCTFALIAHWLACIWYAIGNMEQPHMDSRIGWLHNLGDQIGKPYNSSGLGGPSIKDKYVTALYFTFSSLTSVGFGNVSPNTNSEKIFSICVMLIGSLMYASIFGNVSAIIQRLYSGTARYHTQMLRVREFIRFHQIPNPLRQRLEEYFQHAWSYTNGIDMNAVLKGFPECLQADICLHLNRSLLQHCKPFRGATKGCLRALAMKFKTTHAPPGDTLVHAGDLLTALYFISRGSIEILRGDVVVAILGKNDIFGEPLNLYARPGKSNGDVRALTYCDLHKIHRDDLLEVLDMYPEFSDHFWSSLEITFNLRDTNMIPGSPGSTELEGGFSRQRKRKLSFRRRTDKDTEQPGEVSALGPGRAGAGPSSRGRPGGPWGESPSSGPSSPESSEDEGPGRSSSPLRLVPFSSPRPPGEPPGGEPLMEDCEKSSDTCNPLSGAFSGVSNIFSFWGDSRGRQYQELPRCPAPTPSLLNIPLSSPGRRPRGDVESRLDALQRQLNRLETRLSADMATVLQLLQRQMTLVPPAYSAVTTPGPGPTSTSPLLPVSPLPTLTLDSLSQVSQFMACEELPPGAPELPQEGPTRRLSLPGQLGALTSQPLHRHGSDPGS
Method in brief: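 U2OS cells expressing the channel were plated at 1000 cells/well, incubated overnight at 37 C, then loaded with FluxOR II thallium-sensitive dye for 1 h at room temperature in the dark, with a further 10 min at room temperature before stimulation.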

[10] = Caspase-3/7 induction in CHO-K1 cells by small molecules, qHTS cell viability counter screen (AID 1346979); note: nearly all actives have a fitted effect of over 35% in size
Method in brief: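 Wild-type CHO-K1 cells were seeded at 1,500 per well, rested 5hr at 37 C, then exposed to compounds in DMSO. After 16hr, CellTiter-Fluor reagent was added and fluorescence read 1hr later as the viability measure.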

[11] = biological target: Cytochrome P450 1A2 (Homo sapiens) (UniProt P05177); assay: Cytochrome P450 Family 1 Subfamily A Member 2 (CYP1A2) small molecule antagonists: luciferase reporter qHTS assay (AID 1671199); note: nearly all actives have a fitted effect of over 50% in size
UniProt P05177, sequence (P05177 whole entry, looked up): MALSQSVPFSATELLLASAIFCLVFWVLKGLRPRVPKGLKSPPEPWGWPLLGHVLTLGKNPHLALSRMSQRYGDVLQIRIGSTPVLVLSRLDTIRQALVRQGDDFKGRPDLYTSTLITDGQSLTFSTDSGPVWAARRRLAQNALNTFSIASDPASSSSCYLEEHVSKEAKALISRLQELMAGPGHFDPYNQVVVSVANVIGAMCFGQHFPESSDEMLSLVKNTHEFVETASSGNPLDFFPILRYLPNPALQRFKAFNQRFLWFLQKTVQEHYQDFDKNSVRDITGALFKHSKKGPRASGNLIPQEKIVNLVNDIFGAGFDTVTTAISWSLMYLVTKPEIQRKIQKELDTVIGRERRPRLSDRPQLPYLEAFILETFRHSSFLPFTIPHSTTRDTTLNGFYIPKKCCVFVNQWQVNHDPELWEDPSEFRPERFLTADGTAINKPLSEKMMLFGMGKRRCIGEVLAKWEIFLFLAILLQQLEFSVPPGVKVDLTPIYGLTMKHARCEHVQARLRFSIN
Method in brief: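 Human CYP1A2 activity measured with a P450-Glo proluciferin substrate; compounds in DMSO preincubated 10 min at room temperature with enzyme-substrate mix, then NADPH regeneration system added for 1 h. Luciferin detection reagent, 20 min, luminescence read.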

[12] = biological target: Cytochrome P450 2D6 (Homo sapiens) (UniProt P10635); assay: Cytochrome P450 Family 2 Subfamily D Member 6 (CYP2D6) small molecule antagonists: luciferase reporter qHTS assay (AID 1671196); note: nearly all actives have a fitted effect of over 50% in size
UniProt P10635, sequence (P10635 whole entry, looked up): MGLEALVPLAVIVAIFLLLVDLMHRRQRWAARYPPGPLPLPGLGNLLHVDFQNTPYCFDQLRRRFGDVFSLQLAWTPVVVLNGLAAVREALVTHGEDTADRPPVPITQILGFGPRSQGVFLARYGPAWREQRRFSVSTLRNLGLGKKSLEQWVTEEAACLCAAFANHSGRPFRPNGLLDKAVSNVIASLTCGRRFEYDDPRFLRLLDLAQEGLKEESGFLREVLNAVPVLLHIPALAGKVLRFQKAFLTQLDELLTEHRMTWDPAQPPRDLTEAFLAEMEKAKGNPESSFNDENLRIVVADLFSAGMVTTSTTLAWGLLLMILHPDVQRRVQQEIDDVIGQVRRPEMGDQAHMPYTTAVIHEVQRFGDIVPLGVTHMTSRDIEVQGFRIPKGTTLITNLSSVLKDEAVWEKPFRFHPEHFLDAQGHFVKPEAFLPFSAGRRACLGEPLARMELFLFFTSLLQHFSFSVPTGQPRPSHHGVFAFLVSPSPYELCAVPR
Method in brief: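 CYP2D6 enzyme–substrate mix was held with compound for 10 min at room temperature, then NADPH regeneration solution was added and the reaction ran 1 h at room temperature. Luciferin product was detected by luminescence after 20 min with detection reagent.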

[13] = biological target: Cytochrome P450 2C19 (Homo sapiens) (UniProt P33261); assay: Cytochrome P450 Family 2 Subfamily C Member 19 (CYP2C19) small molecule antagonists: luciferase reporter qHTS assay (AID 1671197); note: nearly all actives have a fitted effect of over 65% in size
UniProt P33261, sequence (P33261 whole entry, looked up): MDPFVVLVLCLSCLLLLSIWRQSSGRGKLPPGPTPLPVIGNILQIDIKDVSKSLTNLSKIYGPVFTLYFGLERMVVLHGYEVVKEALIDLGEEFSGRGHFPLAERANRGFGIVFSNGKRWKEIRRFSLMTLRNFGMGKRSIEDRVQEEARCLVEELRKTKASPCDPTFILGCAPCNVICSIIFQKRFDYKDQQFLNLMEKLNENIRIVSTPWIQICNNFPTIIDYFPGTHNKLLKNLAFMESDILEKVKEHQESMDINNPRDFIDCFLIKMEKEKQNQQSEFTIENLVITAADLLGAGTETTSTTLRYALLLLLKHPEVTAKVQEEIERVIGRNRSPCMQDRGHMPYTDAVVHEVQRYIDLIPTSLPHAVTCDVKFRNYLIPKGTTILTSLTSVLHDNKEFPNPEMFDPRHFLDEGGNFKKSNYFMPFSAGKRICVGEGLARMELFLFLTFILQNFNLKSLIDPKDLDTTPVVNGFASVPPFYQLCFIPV
Method in brief: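 CYP2C19 P450-Glo, 1536-well qHTS. Cpd + enzyme/proluciferin substrate 10 min RT; + NADPH regen, 37C 1 h; stop with luciferin detection reagent, 20 min RT, luminescence (RLU). Pos ctrl ketoconazole.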
Potency is the fitted concentration of half-maximal effect; tags give direction and shape of the fitted curve.

CCN(CC)CCOc1ccc(C(O)(Cc2ccc(Cl)cc2)c2ccc(C)cc2)cc1 (centres undefined)
Potency [1]: active: 26.6 µM
Potency [2]: active: 33.5 µM
Potency [3]: inconclusive: 33.5 µM [activator, single point]
Potency [4]: inconclusive: 33.5 µM [cytotoxic]
Potency [5]: active: 9.44 µM
Potency [6]: inconclusive: 12.6 µM [activator, single point]
Potency [7]: inconclusive: 25.1 µM [activator, single point]
Potency [8]: active: 38.9 µM
Potency [9]: active: 1.34 µM

CC(C)C[C@H](NC(=O)[C@H](CCc1ccccc1)NC(=O)CN1CCOCC1)C(=O)N[C@@H](Cc1ccccc1)C(=O)N[C@@H](CC(C)C)C(=O)[C@@]1(C)CO1
Potency [1]: active: 0.075 µM
Potency [2]: active: 0.266 µM
Potency [10]: active: 0.0944 µM
Potency [3]: active: 0.0473 µM
Potency [4]: inconclusive: 0.0531 µM [cytotoxic, full curve]
Potency [8]: inconclusive: 30.9 µM [inhibitor, partial curve, poor fit]
Potency [11]: inactive

O=C(/C=C/C=C/c1ccc2c(c1)OCO2)N1CCCCC1
Potency [1]: inconclusive: 70.8 µM [cytotoxic, partial curve, poor fit]
Potency [10]: inconclusive: 77.1 µM [cytotoxic, single point] and inconclusive: 68.6 µM [cytotoxic, single point]
Potency [8]: active: 12.7 µM and active: 35.6 µM
Potency [11]: active: 28.3 µM and active: 22.4 µM
Potency [9]: inactive

Nc1ccc2cc3ccccc3cc2c1
Potency [1]: inconclusive: 39.8 µM [cytotoxic, partial curve] and inconclusive: 61.1 µM [cytotoxic, single point]
Potency [10]: inconclusive: 27.3 µM [cytotoxic, partial curve]
Potency [4]: inconclusive: 62.2 µM [cytotoxic, partial curve]
Potency [12]: inconclusive: 64.4 µM [inhibitor, partial curve] and inconclusive: 39.9 µM [inhibitor, partial curve, poor fit]

CC(=O)CC(c1ccccc1)c1c(O)c2ccccc2oc1=O (centres undefined)
Potency [1]: inconclusive: 70.8 µM [cytotoxic, single point] and inactive
Potency [10]: active: 68.9 µM
Potency [4]: inconclusive: 61.4 µM [cytotoxic, partial curve]

Cc1[nH]nc2c1N=C(c1ccccc1Cl)c1cc([N+](=O)[O-])ccc1N2
Potency [1]: active: 13.7 µM
Potency [3]: active: 19.3 µM
Potency [4]: active: 19.3 µM
Potency [12]: inconclusive: 25.2 µM [inhibitor, full curve]

Oc1ccc(Cl)c2cccnc12
Potency [1]: inconclusive: 11.9 µM [cytotoxic]
Potency [3]: active: 6.68 µM
Potency [5]: inconclusive: 3.35 µM [activator, partial curve]

CNC(=O)c1ccccc1Sc1ccc2c(/C=C/c3ccccn3)n[nH]c2c1
Potency [1]: inconclusive: 33.5 µM [cytotoxic, single point]
Potency [10]: active: 26.6 µM
Potency [4]: inconclusive: 33.5 µM [cytotoxic, single point]
Potency [13]: active: 17.4 µM

O=C1OC2(c3ccc(O)cc3Oc3cc(O)ccc32)c2ccccc21
Potency [1]: inconclusive: 24.3 µM [rising, partial curve] and inconclusive: 29.8 µM [rising, partial curve]
Potency [10]: inconclusive: 30.6 µM [rising, partial curve] and inconclusive: 29.8 µM [rising, partial curve]
Potency [4]: inconclusive: 30.6 µM [rising, partial curve] and inconclusive: 26.6 µM [rising, partial curve]
Potency [7]: inconclusive: 25.1 µM [activator, partial curve, poor fit]
Potency [8]: inconclusive: 12.3 µM [inhibitor, partial curve]

NC(=Nc1ccccc1)Nc1ccccc1
Potency [1]: inconclusive: 13.3 µM [cytotoxic, full curve]
Potency [10]: inconclusive: 68.6 µM [cytotoxic, single point]
Potency [4]: active: 20.5 µM and inconclusive: 29.8 µM [cytotoxic, single point]

CO[C@H]1C=CO[C@@]2(C)Oc3c(C)c(O)c4c(O)c(cc(O)c4c3C2=O)NC(=O)/C(C)=C\C=C/[C@H](C)[C@H](O)[C@@H](C)[C@@H](O)[C@@H](C)[C@H](OC(C)=O)[C@@H]1C
Potency [1]: active: 48.9 µM
Potency [10]: active: 19.5 µM
Potency [4]: active: 61.6 µM
Potency [12]: active: 35.8 µM
Potency [11]: inconclusive: 63.7 µM [inhibitor, partial curve]
Potency [9]: inconclusive: 44 µM [inhibitor, partial curve]

O=C=Nc1cccc(C(F)(F)F)c1
Potency [1]: inconclusive: 68.1 µM [cytotoxic]
Potency [10]: inconclusive: 68.1 µM [cytotoxic, single point]
Potency [4]: inactive
Potency [5]: inconclusive: 68.1 µM [activator, single point]
Potency [12]: inactive
Potency [13]: inconclusive: 88.8 µM [inhibitor, single point]
